In the supplement of paper PMC8047034:
Counter-ions that a name gives are not always drawn. The list shows a part of the results. Repeats are few or missing, and single values can be far off.

Legend:
OVCAR4 = assay: log2 surviving fraction (library drug vs vehicle, or drug + carboplatin vs carboplatin alone; relative to plate median); ovarian cancer lines: OVCAR4 is platinum-sensitive and Ov4Carbo platinum-resistant; higher = more cell survival; conditions: library drug concentration 10 µM, 7 days
Ov4Carbo = assay: as above; conditions: library drug concentration 10 µM, 7 days

Work on `Clc1ccc(COC(Cn2ccnc2)c2ccc(Cl)cc2Cl)c(Cl)c1` (stereo unspecified) [Miconazole (Monistat)] yielded a log2 surviving fraction (OVCAR4; carboplatin co-treatment 0 µM) of -7.99, a log2 surviving fraction (OVCAR4; carboplatin co-treatment 5 µM) of -7.24 and a log2 surviving fraction (Ov4Carbo; carboplatin co-treatment 0 µM) of -7.7. For the same molecule, the log2 surviving fraction (Ov4Carbo; carboplatin co-treatment 5 µM) was -6.51.
In the case of `O=C(O[C@H]1CN2CCC1CC2)N1CCc2ccccc2[C@@H]1c1ccccc1` [Solifenacin succinate], the log2 surviving fraction (OVCAR4; carboplatin co-treatment 0 µM) is reported as -0.0369, the log2 surviving fraction (OVCAR4; carboplatin co-treatment 5 µM) is reported as -0.0568 and the log2 surviving fraction (Ov4Carbo; carboplatin co-treatment 0 µM) is reported as 0.373. For the same molecule, the log2 surviving fraction (Ov4Carbo; carboplatin co-treatment 5 µM) was -0.526.
Molecule `Cn1c([N+](=O)[O-])cnc1COC(N)=O` [Ronidazole] has a log2 surviving fraction (OVCAR4; carboplatin co-treatment 0 µM) of 0.106, a log2 surviving fraction (OVCAR4; carboplatin co-treatment 5 µM) of -0.137 and a log2 surviving fraction (Ov4Carbo; carboplatin co-treatment 0 µM) of -0.245. The log2 surviving fraction (Ov4Carbo; carboplatin co-treatment 5 µM) was -0.557.
Molecule `COc1cc(Cc2cnc(N)nc2N)cc(OC)c1OC` [Trimethoprim] has a log2 surviving fraction (OVCAR4; carboplatin co-treatment 0 µM) of 0.499, a log2 surviving fraction (OVCAR4; carboplatin co-treatment 5 µM) of 0.438 and a log2 surviving fraction (Ov4Carbo; carboplatin co-treatment 0 µM) of 1.11. It also gave a log2 surviving fraction (Ov4Carbo; carboplatin co-treatment 5 µM) of 0.919.
`CC(=O)NC[C@H]1CN(c2ccc(N3CCOCC3)c(F)c2)C(=O)O1` [Linezolid (Zyvox)] was tested, and the log2 surviving fraction (OVCAR4; carboplatin co-treatment 0 µM) was 0.215, the log2 surviving fraction (OVCAR4; carboplatin co-treatment 5 µM) was 0.83 and the log2 surviving fraction (Ov4Carbo; carboplatin co-treatment 0 µM) was 0.835. The log2 surviving fraction (Ov4Carbo; carboplatin co-treatment 5 µM) was -0.547.
Molecule `NC[C@H]1O[C@H](O[C@H]2[C@H](O)[C@@H](O[C@H]3O[C@H](CO)[C@@H](O)[C@H](N)[C@H]3O)[C@H](N)C[C@@H]2N)[C@H](N)[C@@H](O)[C@@H]1O` [Bekanamycin] has a log2 surviving fraction (OVCAR4; carboplatin co-treatment 0 µM) of -5.24, a log2 surviving fraction (OVCAR4; carboplatin co-treatment 5 µM) of -0.574 and a log2 surviving fraction (Ov4Carbo; carboplatin co-treatment 0 µM) of -0.0225. The log2 surviving fraction (Ov4Carbo; carboplatin co-treatment 5 µM) was -1.02.
`CCCc1nc2c(C)cc(-c3nc4ccccc4n3C)cc2n1Cc1ccc(-c2ccccc2C(=O)O)cc1` [Telmisartan (Micardis)] was tested, and the log2 surviving fraction (OVCAR4; carboplatin co-treatment 0 µM) was -1.27, the log2 surviving fraction (OVCAR4; carboplatin co-treatment 5 µM) was -1.07 and the log2 surviving fraction (Ov4Carbo; carboplatin co-treatment 0 µM) was -0.362. The log2 surviving fraction (Ov4Carbo; carboplatin co-treatment 5 µM) was 0.0503.
Work on `CCCNC(C)C(=O)Nc1c(C)csc1C(=O)OC` (stereo unspecified) [Articaine HCl] yielded a log2 surviving fraction (OVCAR4; carboplatin co-treatment 0 µM) of 0.11, a log2 surviving fraction (OVCAR4; carboplatin co-treatment 5 µM) of 0.473 and a log2 surviving fraction (Ov4Carbo; carboplatin co-treatment 0 µM) of -0.688. For the same molecule, the log2 surviving fraction (Ov4Carbo; carboplatin co-treatment 5 µM) was -0.422.
Work on `COc1ccc(Cl)cc1C(=O)NCCc1ccc(S(=O)(=O)NC(=O)NC2CCCCC2)cc1` [Glyburide (Diabeta)] yielded a log2 surviving fraction (OVCAR4; carboplatin co-treatment 0 µM) of -1.43, a log2 surviving fraction (OVCAR4; carboplatin co-treatment 5 µM) of -0.785 and a log2 surviving fraction (Ov4Carbo; carboplatin co-treatment 0 µM) of -2.22. It also gave a log2 surviving fraction (Ov4Carbo; carboplatin co-treatment 5 µM) of -0.126.
`C=C(NC(=O)C(=C)NC(=O)c1csc(C2=N[C@@H]3c4csc(n4)[C@H]4NC(=O)c5csc(n5)[C@H]([C@](C)(O)[C@@H](C)O)NC(=O)[C@H]5CSC(=N5)/C(=C/C)NC(=O)[C@H]([C@@H](C)O)NC(=O)c5csc(n5)[C@]3(CC2)NC(=O)[C@H](C)NC(=O)C(=C)NC(=O)[C@H](C)NC(=O)[C@H]([C@@H](C)CC)N[C@@H]2C=Cc3c([C@H](C)O)cc(nc3[C@H]2O)C(=O)O[C@@H]4C)n1)C(N)=O` [Thiostrepton] was tested, and the log2 surviving fraction (OVCAR4; carboplatin co-treatment 0 µM) was -9.68, the log2 surviving fraction (OVCAR4; carboplatin co-treatment 5 µM) was -8.02 and the log2 surviving fraction (Ov4Carbo; carboplatin co-treatment 0 µM) was -8.11. The log2 surviving fraction (Ov4Carbo; carboplatin co-treatment 5 µM) was -7.33.
For `CC(=O)O[C@H]1C[C@@H]2CC[C@@H]3[C@H](CC[C@@]4(C)[C@H]3C[C@H]([N+]3(C)CCCCC3)[C@@H]4OC(C)=O)[C@@]2(C)C[C@@H]1[N+]1(C)CCCCC1` [Pancuronium (Pavulon)], the log2 surviving fraction (OVCAR4; carboplatin co-treatment 0 µM) was -0.25, the log2 surviving fraction (OVCAR4; carboplatin co-treatment 5 µM) was 0.293 and the log2 surviving fraction (Ov4Carbo; carboplatin co-treatment 0 µM) was 0.489. The log2 surviving fraction (Ov4Carbo; carboplatin co-treatment 5 µM) was 0.0165.
For `S=c1[nH]cnc2nc[nH]c12` [Mercaptopurine], the log2 surviving fraction (OVCAR4; carboplatin co-treatment 0 µM) was -0.961, the log2 surviving fraction (OVCAR4; carboplatin co-treatment 5 µM) was -0.829 and the log2 surviving fraction (Ov4Carbo; carboplatin co-treatment 0 µM) was -2.76. For the same molecule, the log2 surviving fraction (Ov4Carbo; carboplatin co-treatment 5 µM) was -3.48.
In the case of `C[C@]12C=CC(=O)C=C1CC[C@@H]1[C@@H]2[C@@H](O)C[C@@]2(C)[C@H]1CC[C@]2(O)C(=O)CO` [Prednisolone (Hydroretrocortine)], the log2 surviving fraction (OVCAR4; carboplatin co-treatment 0 µM) is reported as 0.492, the log2 surviving fraction (OVCAR4; carboplatin co-treatment 5 µM) is reported as 0.789 and the log2 surviving fraction (Ov4Carbo; carboplatin co-treatment 0 µM) is reported as 0.977. The log2 surviving fraction (Ov4Carbo; carboplatin co-treatment 5 µM) was 1.07.
`Cc1nccn1CC1CCc2c(c3ccccc3n2C)C1=O` (stereo unspecified) [Ondansetron (Zofran)] was tested, and the log2 surviving fraction (OVCAR4; carboplatin co-treatment 0 µM) was -2.13, the log2 surviving fraction (OVCAR4; carboplatin co-treatment 5 µM) was 0.276 and the log2 surviving fraction (Ov4Carbo; carboplatin co-treatment 0 µM) was 0.286. The log2 surviving fraction (Ov4Carbo; carboplatin co-treatment 5 µM) was 0.108.
`CCCCCCCCCC(=O)N[C@@H](Cc1c[nH]c2ccccc12)C(=O)N[C@H](CC(N)=O)C(=O)N[C@@H](CC(=O)O)C(=O)N[C@@H]1C(=O)NCC(=O)N[C@@H](CCCN)C(=O)N[C@@H](CC(=O)O)C(=O)N[C@H](C)C(=O)N[C@@H](CC(=O)O)C(=O)NCC(=O)N[C@H](CO)C(=O)N[C@@H]([C@H](C)CC(=O)O)C(=O)N[C@@H](CC(=O)c2ccccc2N)C(=O)O[C@@H]1C` [Daptomycin] gave a log2 surviving fraction (OVCAR4; carboplatin co-treatment 0 µM) of -1.67, a log2 surviving fraction (OVCAR4; carboplatin co-treatment 5 µM) of 0.959 and a log2 surviving fraction (Ov4Carbo; carboplatin co-treatment 0 µM) of 0.127. It also gave a log2 surviving fraction (Ov4Carbo; carboplatin co-treatment 5 µM) of -0.546.
Work on `CN1CCC(=C2c3ccccc3CC(=O)c3sccc32)CC1` [Ketotifen fumarate (Zaditor)] yielded a log2 surviving fraction (OVCAR4; carboplatin co-treatment 0 µM) of 1.03, a log2 surviving fraction (OVCAR4; carboplatin co-treatment 5 µM) of 0.917 and a log2 surviving fraction (Ov4Carbo; carboplatin co-treatment 0 µM) of -0.348. It also gave a log2 surviving fraction (Ov4Carbo; carboplatin co-treatment 5 µM) of 0.719.
In the case of `NC[C@H]1O[C@H](O[C@H]2[C@H](O)[C@@H](O[C@H]3O[C@H](CO)[C@@H](O)[C@H](N)[C@H]3O)[C@H](N)C[C@@H]2N)[C@H](N)C[C@@H]1O` [Tobramycin], the log2 surviving fraction (OVCAR4; carboplatin co-treatment 0 µM) is reported as -0.000115, the log2 surviving fraction (OVCAR4; carboplatin co-treatment 5 µM) is reported as 0.0158 and the log2 surviving fraction (Ov4Carbo; carboplatin co-treatment 0 µM) is reported as -0.181. The log2 surviving fraction (Ov4Carbo; carboplatin co-treatment 5 µM) was -0.399.
With `N[C@H](Cc1ccccc1)C(=O)O` [D-Phenylalanine] the log2 surviving fraction (OVCAR4; carboplatin co-treatment 0 µM) was 0.0214, the log2 surviving fraction (OVCAR4; carboplatin co-treatment 5 µM) was 0.613 and the log2 surviving fraction (Ov4Carbo; carboplatin co-treatment 0 µM) was 0.387. For the same molecule, the log2 surviving fraction (Ov4Carbo; carboplatin co-treatment 5 µM) was 0.613.
`C[C@]12CC[C@@H]3c4ccc(O)cc4CC[C@H]3[C@@H]1C[C@@H](O)[C@@H]2O` [Estriol] showed a log2 surviving fraction (OVCAR4; carboplatin co-treatment 0 µM) of 0.554, a log2 surviving fraction (OVCAR4; carboplatin co-treatment 5 µM) of 0.884 and a log2 surviving fraction (Ov4Carbo; carboplatin co-treatment 0 µM) of 0.287. For the same molecule, the log2 surviving fraction (Ov4Carbo; carboplatin co-treatment 5 µM) was 0.428.
